Measurements as given in the supplement of paper PMC3334620.
Over roughly 33,000 sequences, “E-score (-0.5 to 0.5)” has its median near -0.053; the highest 2% begin near 0.37. The list shows a part of the results.

Each sequence was assayed against Hap1 (UniProt P0CE41) (assay: PBM E-score (8-mer binding enrichment) (E-score (-0.5 to 0.5)); higher = stronger / more preferred TF binding; most listed sequences are background and not binding sites). Conditions: protein concentration: 200 nM; construct: GST-DNA-binding domain.
Sequence of UniProt P0CE41 (P0CE41 whole entry, the tested form may be a part): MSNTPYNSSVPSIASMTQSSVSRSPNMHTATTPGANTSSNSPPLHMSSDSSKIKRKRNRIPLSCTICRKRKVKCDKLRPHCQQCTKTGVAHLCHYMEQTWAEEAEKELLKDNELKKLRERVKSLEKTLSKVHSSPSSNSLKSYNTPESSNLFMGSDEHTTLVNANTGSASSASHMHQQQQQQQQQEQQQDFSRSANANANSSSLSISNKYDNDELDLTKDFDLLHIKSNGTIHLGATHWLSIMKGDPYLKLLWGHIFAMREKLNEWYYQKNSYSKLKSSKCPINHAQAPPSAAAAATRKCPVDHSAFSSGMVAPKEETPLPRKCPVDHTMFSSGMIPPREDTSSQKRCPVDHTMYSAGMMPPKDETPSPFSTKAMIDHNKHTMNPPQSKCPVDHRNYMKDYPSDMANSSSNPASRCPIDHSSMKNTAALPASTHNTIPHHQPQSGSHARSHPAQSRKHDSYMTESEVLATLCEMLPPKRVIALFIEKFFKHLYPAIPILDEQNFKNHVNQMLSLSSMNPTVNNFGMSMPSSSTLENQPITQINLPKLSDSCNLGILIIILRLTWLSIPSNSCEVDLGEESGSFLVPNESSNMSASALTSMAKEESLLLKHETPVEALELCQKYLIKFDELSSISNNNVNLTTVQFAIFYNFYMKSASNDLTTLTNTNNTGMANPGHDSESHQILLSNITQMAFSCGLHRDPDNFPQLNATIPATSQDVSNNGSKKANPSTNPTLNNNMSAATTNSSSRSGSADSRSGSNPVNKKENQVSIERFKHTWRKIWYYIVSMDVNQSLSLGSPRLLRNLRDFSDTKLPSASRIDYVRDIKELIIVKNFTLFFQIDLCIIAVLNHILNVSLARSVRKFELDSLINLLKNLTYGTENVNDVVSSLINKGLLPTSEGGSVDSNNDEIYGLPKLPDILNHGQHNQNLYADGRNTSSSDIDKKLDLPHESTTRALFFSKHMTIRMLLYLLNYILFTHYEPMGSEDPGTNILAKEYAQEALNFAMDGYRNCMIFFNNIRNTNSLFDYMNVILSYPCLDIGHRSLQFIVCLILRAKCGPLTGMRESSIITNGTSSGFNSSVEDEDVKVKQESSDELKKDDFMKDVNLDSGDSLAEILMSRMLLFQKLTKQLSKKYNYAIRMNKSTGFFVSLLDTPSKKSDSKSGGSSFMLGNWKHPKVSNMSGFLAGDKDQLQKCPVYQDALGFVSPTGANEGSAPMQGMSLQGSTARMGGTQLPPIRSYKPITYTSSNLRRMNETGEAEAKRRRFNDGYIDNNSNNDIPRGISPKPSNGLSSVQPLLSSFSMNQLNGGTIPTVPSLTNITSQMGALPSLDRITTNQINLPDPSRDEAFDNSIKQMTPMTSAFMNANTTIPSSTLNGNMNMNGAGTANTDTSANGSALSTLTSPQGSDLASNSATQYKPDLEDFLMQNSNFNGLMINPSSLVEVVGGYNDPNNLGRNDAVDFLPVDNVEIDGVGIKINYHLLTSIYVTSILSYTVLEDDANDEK
Description: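 Universal 'all 10-mer' protein binding microarrays (Agilent AMADID 015681) probed with GST-tagged S. cerevisiae TFs (full-length or DBD) made by in vitro transcription/translation (PURExpress), about 100-200 nM. Bound TF was detected with fluorescent anti-GST. Each ungapped 8-mer (which stands for itself and its reverse complement) is scored by the PBM enrichment score (E-score), a modified Wilcoxon-Mann-Whitney statistic from -0.5 to +0.5, computed with the Universal PBM Analysis Suite. Scale: above 0.35 generally sequence-specific binding.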

| Sequence | PBM E-score |
| --- | --- |
| CCCCGCTC | 0.0426 |
| ACGGTCCA | 0.125 |
| CGATCAAC | -0.0697 |
| GCTATATA | -0.203 |
| TACACTAA | -0.225 |
| ACATCACG | -0.152 |
| ACCGCCCC | 0.236 |
| ATGAGATG | -0.18 |
| ACAGATGG | -0.182 |
| AGGATGAC | -0.263 |
| ATGGTCGA | -0.174 |
| ACACGTGT | -0.281 |
| GGAAGAGA | 0.109 |
| CCGCCAGC | 0.0463 |
| GAACGTCA | -0.238 |
| CGGTATTA | 0.412 |
| ATTTCATG | -0.268 |
| GATATGGC | 0.11 |
| CCGGGAGG | 0.29 |
| CAGAAGGC | -0.0753 |
| CGAAATGA | 0.208 |
| CTGTTGGA | -0.174 |
| AGACAGAA | -0.173 |
| ATTGAGTA | -0.118 |
| GGAGACTA | -0.0255 |

| Sequence | PBM E-score |
| --- | --- |
| CAGTATCC | -0.0739 |
| GAACCGAC | 0.124 |
| CGGATAAC | 0.359 |
| GGGCGCAC | -0.0191 |
| CTCCCTAC | -0.245 |
| CGTGGTCA | -0.142 |
| AATATTAC | 0.0669 |
| ACTCTGGC | -0.091 |
| ATAAAATG | -0.0472 |
| ATATCGCA | 0.0581 |
| AAGGACCA | -0.199 |
| AGCGGGAT | 0.136 |
| ACCCCCAC | -0.0534 |
| TAAGGGGA | -0.0237 |
| ATAACAAT | -0.046 |
| ATCATCGG | 0.361 |
| AGAGTCAT | -0.343 |
| AGCGTCAA | -0.0521 |
| GCGCGTTA | 0.122 |
| ATTGACGC | -0.123 |
| ACTTCGAA | -0.188 |
| ATCCGCTC | 0.29 |
| AAACGCGA | 0.145 |
| GTCGCGTA | -0.051 |
| ATCGCCAT | 0.0823 |

| Sequence | PBM E-score |
| --- | --- |
| ACTTATAG | -0.0992 |
| AAGCGAGT | 0.176 |
| ATTAAAAG | -0.0542 |
| ATAAAGAC | 0.0444 |
| GGATTACA | 0.0168 |
| CGAGAATA | 0.0543 |
| ACACACAC | -0.283 |
| AGTGATAT | 0.0216 |
| CATCTTGG | -0.129 |
| CATCGGCA | 0.266 |
| CGAAGTAC | 0.18 |
| GAAGGGGC | -0.204 |
| TGAGAACA | -0.179 |
| CAACGAAG | -0.27 |
| AGCGTACT | -0.0657 |
| AAGGCCAG | -0.0606 |
| CTACCAAG | -0.298 |
| ATATGTTG | -0.0945 |
| AGACCAAT | -0.221 |
| AGGGCGGG | 0.141 |
| TACTTGAA | -0.264 |
| GCAGTACA | -0.136 |
| ATGGACAG | -0.24 |
| ATATCTCC | 0.437 |
| GTGAAGAA | -0.0665 |

| Sequence | PBM E-score |
| --- | --- |
| GTCGAGAA | -0.171 |
| AGGTGCAA | -0.128 |
| GGAAATCA | 0.0747 |
| CCCCAAAG | -0.293 |
| AAGATCGC | -0.0915 |
| CCGGGAAG | 0.294 |
| AGAGTATG | 0.00796 |
| CCAATTTC | 0.168 |
| CGATACAG | 0.109 |
| AAATCGCT | 0.0274 |
| CAGTAGCC | -0.144 |
| CCGTAGCA | -0.141 |
| CATTGACG | -0.206 |
| GAACGAAA | -0.0605 |
| AGGTTAAC | 0.157 |
| CCAGTGGG | -0.0849 |
| GGTACTTA | -0.00883 |
| ACCTTTGC | -0.0773 |
| ATAGAGTC | -0.0717 |
| CCGTCCGA | 0.399 |
| ACACGTCC | 0.0365 |
| GACAGACA | 0.214 |
| AACATGTC | 0.1 |
| CTGGAGGC | -0.096 |
| CTTTGCCA | 0.0049 |

| Sequence | PBM E-score |
| --- | --- |
| AGTTTATC | 0.102 |
| ATTGCGGC | 0.101 |
| ATTATCTG | 0.0265 |
| ACCGCAAA | 0.0946 |
| ATTCGGGA | 0.197 |
| CCATCGTA | -0.0897 |
| CCCGGGAA | 0.339 |
| AATTCTTA | 0.0131 |
| AATAGAGG | -0.0248 |
| CCGCCGAG | 0.352 |
| ATCTTACG | 0.0394 |
| AAGTTTGG | -0.104 |
| CGACAACG | 0.105 |
| AACTGCGG | 0.323 |
| ATTAACGA | 0.0607 |
| AACATGGA | -0.0735 |
| GATGTGCC | -0.0518 |
| GGGATAGA | -0.0284 |
| GACCTGGC | -0.00044 |
| AAGAAGAC | -0.157 |
| CAGAATTC | -0.0591 |
| AACCCACA | -0.182 |
| CCCGATCA | 0.155 |
| CACAGTGG | -0.0715 |
| GGACCGAC | 0.341 |

| Sequence | PBM E-score |
| --- | --- |
| AGATAGCC | 0.0418 |
| CGCAGACC | 0.00648 |
| ATCTTCTG | -0.0339 |
| CCCGACGC | 0.243 |
| AGTAACGG | 0.201 |
| GGGATCAC | -0.0893 |
| CGGCCCTC | 0.177 |
| CCGATAGC | 0.372 |
| AGGAGTAT | -0.265 |
| CCTCCGCA | 0.173 |
| GGGTGTGA | -0.0112 |
| CATCCATA | -0.0703 |
| CACAGGAA | -0.136 |
| ACAATCGG | 0.329 |
| GCATTGAC | -0.194 |
| GCTAGCAC | -0.144 |
| TACCCATA | -0.258 |
| CACCGCAA | 0.245 |
| GCTCCTCC | -0.146 |
| AGACAAAA | -0.0647 |
| ATGCTGGA | -0.113 |
| GCACTCGC | -0.0299 |
| GCAGCGGA | 0.158 |
| AAGTGACA | -0.105 |
| GGTGTTAC | 0.0592 |

| Sequence | PBM E-score |
| --- | --- |
| AACACGAC | -0.128 |
| AATCTCAA | -0.0418 |
| CCACCTCA | -0.103 |
| ACTTAGCA | 0.0386 |
| GAGCTTCC | 0.175 |
| AAAATAGC | -0.251 |
| ACTTTTTC | 0.0285 |
| CAGCCTCA | -0.227 |
| CGTGTTGC | 0.0334 |
| CGATCGCG | 0.22 |
| AGTAACTG | -0.164 |
| ACGGACAA | 0.335 |
| AGCAAACT | -0.0518 |
| CAAGGGGC | -0.0889 |
| AAGACGCG | 0.112 |
| ACATCCGA | 0.382 |
| TAATGACA | -0.0837 |
| ACACAATG | -0.2 |
| CCGCTACG | 0.349 |
| CGGTTCTC | 0.02 |
| GAGGCACC | -0.0321 |
| ACCTGTTG | -0.108 |
